Measured values: PubChem BioAssay AID743262 (National Center for Advancing Translational Sciences (NCATS), 2014)
Among all 1,300 compounds or so, about 25 (2%) were called active. Another 9% or so got no clear call; they are omitted. Calls follow the shape of the dose curve; as a rule, active = well fitted activation curve with a large enough effect; inconclusive = small, poorly fitted or top-dose-only effect; inactive = flat fitted curve, though single readings scatter. Some of the results follow.

Target: Glucagon-like peptide 1 receptor (Homo sapiens) (UniProt P43220)
UniProt P43220, sequence (P43220 whole entry, looked up): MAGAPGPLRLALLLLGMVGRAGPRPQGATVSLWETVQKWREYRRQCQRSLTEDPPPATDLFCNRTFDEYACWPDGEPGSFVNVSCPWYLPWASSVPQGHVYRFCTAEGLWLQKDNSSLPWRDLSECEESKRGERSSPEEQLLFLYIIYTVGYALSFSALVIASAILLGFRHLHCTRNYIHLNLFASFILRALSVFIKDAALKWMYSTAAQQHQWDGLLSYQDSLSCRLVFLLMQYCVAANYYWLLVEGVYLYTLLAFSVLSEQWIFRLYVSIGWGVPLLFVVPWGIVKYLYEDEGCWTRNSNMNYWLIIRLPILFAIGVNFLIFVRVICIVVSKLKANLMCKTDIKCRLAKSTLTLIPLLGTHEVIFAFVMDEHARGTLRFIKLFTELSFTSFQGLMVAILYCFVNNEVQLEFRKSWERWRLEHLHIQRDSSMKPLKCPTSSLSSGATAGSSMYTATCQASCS
Assay: qHTS of GLP-1 Receptor Agonists: Hit Validation; as to activation: % of control where 0% means no effect
Details: HEK293 GLP-1R, cAMP-response luciferase, 4-6 h; series mostly up to 46.1 µM; activation: at the top concentration
How it was run: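 Stably transfected HEK293 cells co-expressing GLP-1R and a cAMP-responsive luciferase reporter, plated 12 h before compound. Compound exposure 4-6 hr at 37 deg C, 5% CO2; luciferase luminescence read after 12 min detection at RT.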
Potency is read from the fitted curve at half-maximal effect.

| Structure (SMILES) | activation | Potency |
| --- | --- | --- |
| COc1cc2c(cc1OC)-c1cc(NC3CC3)nc(=O)n1CC2 | inactive: 10.1% | – |
| CCOc1ccc(/C=C2/Sc3ccc(C(=O)NCC4CCCO4)cc3N(C)C2=O)cc1OC (stereo unspecified) | inactive: 18.7% | – |
| COc1ccc(-c2cnc3c(NC(C)=O)cc(-c4cccc(NS(C)(=O)=O)c4)cn23)cc1OC | inactive: 27.9% | – |
| CCOc1ccc(Oc2c(/C=N/NC(N)=O)c(C)nn2-c2ccccc2)cc1 | inactive: 16% | – |
| CCOC(=O)c1[nH]c(C)c(C(=O)Nc2cc(OC)ccc2OC)c1C | inactive: 8.95% | – |
| N#Cc1nc(-c2cccs2)oc1NCc1ccccc1Cl | inactive: 11.1% | – |
| COc1cc2cc(C)nc(Cc3cccc4ccccc34)c2cc1OC | inactive: 12.9% | – |
| CCOc1ccc(-n2c(C)nc3cc(C(=O)NCCN4CCOCC4)ccc32)cc1 | inactive: -0.63% | – |
| O=[N+]([O-])c1ccc(N2CCNCC2)cc1NCc1cccnc1 | inactive: 11.6% | – |
| CCCc1nc(N)c(C#N)c(N)c1C#N | inactive: 12.8% | – |
| CCSc1nc2cc(OC)c(OC)cc2c(=O)n1CC | inactive: 8.63% | – |
| CCCCCCSC1=C(C#N)C(c2ccc(O)cc2)CC(=O)N1 (stereo unspecified) | inactive: -0.367% | – |
| COc1cc2c(cc1OC)CN(C(=O)COc1ccccc1C#N)CC2 | inactive: 10.5% | – |
| O=C(O)CC1(CC(=O)Nc2ccc(C(F)(F)F)cc2)CCCC1 | inactive: -1.63% | – |
| COc1cc2c(c3oc(-c4ccccc4)cc(=O)c13)C=CC(C)(C)O2 | inactive: 14.1% | – |
| CCOc1cc(/C=C2/C(=O)ON=C2C)ccc1OCc1ccccc1F | inactive: -1.64% | – |
| CSc1ccc(CN2CCCC(CNC(=O)c3ccc(F)cc3)C2)cc1 (stereo unspecified) | inactive: -0.442% | – |
| COc1cc2c(cc1OC)/C(=C/C#N)NC(C)(C)C2 | inactive: 18.3% | – |
| O=C(c1ccccc1)n1c2ccccc2c(=O)n1-c1ccccc1CCl | inactive: -0.375% | – |

| Structure (SMILES) | activation | Potency |
| --- | --- | --- |
| COc1ccc(CCNc2oc(Cc3cccc4ccccc34)nc2C#N)cc1OC | inactive: 11.5% | – |
| Cc1cccc(OCCSc2cc(C)nc(N)n2)c1 | inactive: 1.84% | – |
| COc1ccc(-c2cc(-c3ccc(O)cc3)nc(N)c2C#N)cc1OC | inactive: 20% | – |
| C=C(C)CSc1cc(C)nc2c(-c3ccccc3)c(C)nn12 | inactive: 7.88% | – |
| Cc1ccc(CCNC(=O)C2CCC(=O)N(Cc3cccc(F)c3)C2)cc1 (stereo unspecified) | inactive: -1.17% | – |
| Cc1c(C(=O)NCc2cccnc2)oc2ccc(S(=O)(=O)N3CCCCC3)cc12 | inactive: 1.02% | – |
| COc1ccc(C(=O)COC(=O)c2cc([N+](=O)[O-])ccc2N2CCOCC2)c(OC)c1 | – | active: 20.6 µM |
| CCc1nc(NCCCn2ccnc2)c2oc3ccccc3c2n1 | inactive: 2.8% | – |
| O=C(Cn1nc(-c2ccc(N3CCOCC3)c([N+](=O)[O-])c2)c2ccccc2c1=O)N1CCCCC1 | inactive: 20.3% | – |
| OC(c1ccccc1)c1nc(-c2csc3ccccc23)cs1 (stereo unspecified) | – | active: 7.31 µM |
| COc1ccc(-c2nc(C#N)c(NCc3cccnc3)o2)cc1OC | inactive: 14.4% | – |
| COc1ccccc1N1CCN(C(=O)/C=C/c2ccco2)CC1 | inactive: 2.92% | – |
| OCCNc1nc(-c2ccccc2)c2cc(Cl)ccc2n1 | inactive: 15.5% | – |
| CCOc1ccc(-c2cc3nc(C4CCN(C(=O)OC(C)(C)C)CC4)c(C(=O)O)cn3n2)cc1 | inactive: 15% | – |
| COc1ccc(-c2nc(C#N)c(NCc3ccc(F)cc3)o2)cc1OC | inactive: 24.3% | – |
| COc1ccc(C(=O)c2ccc(OC)c3cccc(O)c23)cc1OC | inactive: 3.47% | – |
| N#Cc1ccccc1CSc1nc2ccsc2c(=O)n1Cc1ccccn1 | inactive: 3.3% | – |
| COc1cc(C(=O)N(Cc2cccnc2)Cc2cc3cc4c(cc3[nH]c2=O)OCCO4)cc(OC)c1OC | inactive: 1.89% | – |
| COc1ccc(C(C)=O)cc1COc1ccc([N+](=O)[O-])c(C)c1 | inactive: 2.01% | – |

| Structure (SMILES) | activation | Potency |
| --- | --- | --- |
| O=C(Nc1cccnc1)c1cc2nc(C3CC3)cc(C(F)(F)F)n2n1 | inactive: 2.01% | – |
| CCN(CC)C(=O)c1ccc(COc2ccccc2Cl)cc1 | inactive: -0.201% | – |
| COc1ccc(COC(=O)c2cccc(S(=O)(=O)N3CCN(C(C)=O)CC3)c2)cc1F | inactive: -0.378% | – |
| O=C(NCc1ccccn1)Nc1ccc2c(c1)OCO2 | inactive: -0.911% | – |
| N/C(=N\OC(=O)c1ccc2ccccc2c1)c1ccccc1Cl | inactive: 11.2% | – |
| COC(=O)c1sc(NC(=O)CSc2nc3cccnc3n2C)nc1C | inactive: -1.18% | – |
| Cc1ccc(C)c(S(=O)(=O)Nc2cc3c4c(c2)CCC(=O)N4CCC3)c1 | inactive: 4.82% | – |
| O=C(NCC1CCCN(Cc2nccs2)C1)c1cccc2ccccc12 (stereo unspecified) | inactive: -0.55% | – |
| COc1cccc(Nc2nc(N)nc(C(F)(F)F)n2)c1 | inactive: 5.74% | – |
| COC(=O)c1c(NC(=O)C2=COCCO2)sc(C)c1C | inactive: 1.3% | – |
| CCN(CC(=O)Nc1ccc(OC)c(OC)c1)CC(=O)Nc1ccccc1C(F)(F)F | inactive: 1.95% | – |
| O=C(NCc1ccccc1Cl)c1ccccc1Oc1ccccc1 | inactive: 4.67% | – |
| COc1ccc(-n2nc(C(=O)NCC(=O)Nc3cc(OC)c(OC)c(OC)c3)c3ccccc3c2=O)cc1 | inactive: 0.214% | – |
| CCN(CC(O)c1cccc(O)c1)C(=O)C12CC3CC(CC(C3)C1)C2 (stereo unspecified) | inactive: 26% | – |
| Cc1ccc(NC(=S)NCCc2ccccc2)nc1 | inactive: 3.32% | – |
| Cc1ccc(C)c(COC(=O)c2cc([N+](=O)[O-])ccc2N2CCOCC2)c1 | inactive: 14.6% | – |
| CCCCCCCOc1ccc(C2CC(=O)N(C)C2=O)cc1 (stereo unspecified) | inactive: 3.7% | – |
| CCOC(=O)c1c(C)c(C(=O)Nc2cc(OC)ccc2OC)c(C)n1CC | inactive: 18% | – |
